2 compounds from patent US20160346398A1, “CROSS-LINKED HYALURONIC ACID FOR DRUG DELIVERY AND PHARMACEUTICAL PREPARATION USING SAME” (ALURON BIOPHARMA INC., priority 2015, published 2016) can be followed below.

Test [1] has as its system human breast MCF-7 tumors.
Test [2] concerns human breast MCF-7 tumors. As to conditions: for activity towards human MCF-7 breast tumors (in words): dose 50 mg/kg.

Read-outs that look alike come from different tables or passages of the source.

Consider `N#Cc1ccc(C(c2ccc(C#N)cc2)n2cncn2)cc1` [Letrozole], for which the “Mean tumor volume (mm^3) ± SD” value in test [1] (Day 60, dose 5 mg/kg oral) is on record as 54.0 ± 13.9 mm^3. The “tumor regression (in words)” value in test [1] (dose 5 mg/kg) is listed as “tumor regression leading to tumor-free animals”. Besides, in test [1] (end of study, dose 5 mg/kg), the “Number of tumor-free animals” value is reported as 3/10.

In the case of `O=C(c1ccc(OCCN2CCCCC2)cc1)c1c(-c2ccc(O)cc2)sc2cc(O)ccc12` [Raloxifene], the “Mean tumor volume (mm^3) ± SD” value in test [2] (Day 49, dose 50 mg/kg oral) is 1919.5 ± 104.1 mm^3. Further, the “activity towards human MCF-7 breast tumors (in words)” value was “did not suppress tumor growth” in test [2] (listed as Pure Raloxifene) and “inactive” in test [2] (listed as Unconjugated Raloxifene).
